Among all 310,000 compounds or so, about 2,200 (0.71%) showed an effect of 50% or more. Effects have a minus sign here. Some of the results follow.

This assay deals with human ether-à-go-go-related gene (hERG) potassium channel (human, UniProt Q12809). Description: primary screen, population patch clamp on CHO cells stably expressing hERG.
human ether-à-go-go-related gene (hERG) potassium channel, sequence (Q12809 whole entry, looked up): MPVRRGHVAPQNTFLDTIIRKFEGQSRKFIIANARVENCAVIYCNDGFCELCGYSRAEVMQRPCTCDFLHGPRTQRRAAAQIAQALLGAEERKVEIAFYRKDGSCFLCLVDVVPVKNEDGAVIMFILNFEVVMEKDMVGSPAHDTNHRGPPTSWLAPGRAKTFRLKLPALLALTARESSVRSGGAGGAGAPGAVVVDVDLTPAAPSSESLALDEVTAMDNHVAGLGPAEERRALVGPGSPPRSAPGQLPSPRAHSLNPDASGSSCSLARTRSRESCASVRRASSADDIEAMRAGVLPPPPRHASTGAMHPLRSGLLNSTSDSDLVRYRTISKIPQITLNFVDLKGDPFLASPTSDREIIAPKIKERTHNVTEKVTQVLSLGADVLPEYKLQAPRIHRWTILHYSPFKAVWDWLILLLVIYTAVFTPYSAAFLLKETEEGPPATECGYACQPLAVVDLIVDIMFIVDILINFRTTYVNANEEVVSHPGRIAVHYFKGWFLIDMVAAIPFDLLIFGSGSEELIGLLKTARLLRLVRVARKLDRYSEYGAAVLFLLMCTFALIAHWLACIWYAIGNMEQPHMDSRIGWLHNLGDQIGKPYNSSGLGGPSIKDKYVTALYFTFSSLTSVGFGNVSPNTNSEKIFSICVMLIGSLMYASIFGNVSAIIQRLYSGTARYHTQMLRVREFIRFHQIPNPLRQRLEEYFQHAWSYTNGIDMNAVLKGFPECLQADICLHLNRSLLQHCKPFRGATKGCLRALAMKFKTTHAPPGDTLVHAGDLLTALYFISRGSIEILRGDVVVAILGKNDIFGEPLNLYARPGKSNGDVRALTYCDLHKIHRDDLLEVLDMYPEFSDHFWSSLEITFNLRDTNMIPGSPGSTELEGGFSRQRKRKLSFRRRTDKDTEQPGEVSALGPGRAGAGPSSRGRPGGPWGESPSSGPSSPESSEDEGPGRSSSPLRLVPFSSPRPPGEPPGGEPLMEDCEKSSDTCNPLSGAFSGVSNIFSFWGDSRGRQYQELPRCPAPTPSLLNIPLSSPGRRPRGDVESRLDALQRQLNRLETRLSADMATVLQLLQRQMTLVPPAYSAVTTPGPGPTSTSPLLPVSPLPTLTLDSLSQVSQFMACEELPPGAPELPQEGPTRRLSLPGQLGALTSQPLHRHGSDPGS
For the molecule `CN(CC1CCOCC1)C(=O)CC1C(=O)NCCN1Cc1cccc(F)c1` (stereo not shown), the “hERG current change (%, negative = inhibition) at 1uM” value is 13.9%.
In the case of `O=C(OC(C(=O)NC1CCCC1)c1ccncc1)C1=Cc2ccccc2OC1` (stereo not shown) it was 11.4%.
Under `CC(C)OC(=O)/C(C#N)=C/c1cn(C)c2ccccc12` stands 12.5%; under `CCOC(=O)Cn1c(C)c(C#N)c2ccccc21`, 8.11%; under `COc1ccccc1Nc1nc(C)nc2c1oc1ccccc12.Cl`, 15.3%.
Under `Cc1cc(Nc2ccc(C(=O)O)cc2)n2nc(C)nc2n1` stands -0.965%; under `CCCc1c(C(=O)Nc2ccc(F)cc2)cnn1-c1ccccc1`, 11.2%; under `CC(=O)NCCNc1ccc([N+](=O)[O-])cc1C#N`, 8.02%.
As to `COc1ccc(-c2csc(/C(C#N)=C(\O)CSc3nccn3C)n2)cc1OC`, the “hERG current change (%, negative = inhibition) at 1uM” value is given as -7.27%.
Under `O=C(CN1C(=O)c2ccccc2C1=O)NCC(=O)OCC(=O)c1cccc([N+](=O)[O-])c1` stands 10.3%; under `Cc1ccc([N+](=O)[O-])cc1N=Nc1c(C)[nH]n(C(N)=S)c1=O`, 10.4%.
In the case of `Cc1ccccc1CC(=O)N1CCCC(CCC(=O)N2CCN(c3ccccn3)CC2)C1` (stereo not shown) it was 5.66%; in that of `O=C(c1cc2ccccc2oc1=O)N1CCN(c2ncccn2)CC1`, 13.1%; in that of `O=C(CSC1CC(=O)N(c2ccc(C(=O)O)cc2)C1=O)Nc1ccc2ccccc2c1` (stereo not shown), 11.2%.
On to `COC(=O)C1CCN(c2nc3ccccc3nc2C(C#N)C(=O)NCCc2ccccc2)CC1` (stereo not shown), for which the “hERG current change (%, negative = inhibition) at 1uM” value worked out at 8.06%.
Consider `O=C(O)C1CCN(S(=O)(=O)c2cccs2)CC1`, for which the “hERG current change (%, negative = inhibition) at 1uM” value came out at 10.9%.
For `CCCCOc1cccc(-c2nnc(NC(=O)CSc3ccc(C)cc3)s2)c1`, the “hERG current change (%, negative = inhibition) at 1uM” value is reported as -2.82%.
In the case of `Cc1ccc(C(=O)Nc2nc3ccccc3n3nnnc23)cc1` it was -16.1%; in that of `Cc1ccc(SCc2cc(=O)c3c(=O)n(-c4ccccc4)[nH]c3[nH]2)cc1`, 9.44%.
As for `Cc1ccc(S(=O)(=O)N2CN(CC3CCCO3)c3nc4ccccc4nc32)c(C)c1` (stereo not shown), the “hERG current change (%, negative = inhibition) at 1uM” value turned out to be 14.6%.
Under `COc1ccc(N(CC(=O)NC2CC3CCC2C3)S(=O)(=O)c2ccccc2)cc1Cl` (stereo not shown) stands -5.26%.
On to `CCn1c(=O)c(=O)n(CC)c2cc(S(=O)(=O)Nc3cc(C)ccc3C)ccc21`, for which the “hERG current change (%, negative = inhibition) at 1uM” value is given as -7.63%.
In the case of `COc1ccccc1-c1nc(C#N)c(NCc2ccc(F)cc2)o1` it was -0.0431%.
Under `O=C(c1csc2c1CCCCC2)N1CCN(c2ncccn2)CC1` stands 4.87%.
`CCC1S/C(=N/N=C/c2ccco2)N(c2ccc(F)cc2)C1=O` (stereo not shown): the “hERG current change (%, negative = inhibition) at 1uM” value amounted to 6.62%.
In the case of `COc1ccc(OC)c(N2Cc3cc(C)c(C)cc3C2)c1` it was 5.02%.
In the case of `Cc1cccc(-c2cc(C(=O)Nc3sc(C)c(C)c3C(N)=O)c3ccccc3n2)c1`, the “hERG current change (%, negative = inhibition) at 1uM” value was 13.8%.
In the case of `CCc1ccccc1Oc1coc2cc(O)ccc2c1=O` it was 13.9%; in that of `Cc1cccc(C)c1Nc1c(-c2ccccc2O)nc2ncccn12`, 5.97%; in that of `CC(Sc1nnc(-c2ccco2)n1C)C(=O)N(C)C1CCCCC1` (stereo not shown), 14.6%.
In the case of `CCc1ccccc1N1C(=O)C2CC=CCC2C1=O` (stereo not shown) it was -2.54%; in that of `O=C(Nc1ccc(Br)cc1)c1cccn1-c1ncc(C(F)(F)F)cc1Cl`, 4.14%.
In the case of `CC(C)CN(C(=O)CN(C)C(=O)c1ccco1)c1c(N)n(CC(C)C)c(=O)[nH]c1=O` it was 15.6%.
Regarding `COc1ccccc1CN1CC(C(=O)N2CCC(C(=O)c3ccccc3)CC2)CCC1=O` (stereo not shown), the “hERG current change (%, negative = inhibition) at 1uM” value is on record as 2.78%.
Consider `CC(C)c1ccc(NC2CCCN(C(=O)c3ccnc(Cl)c3)C2)cc1` (stereo not shown), for which the “hERG current change (%, negative = inhibition) at 1uM” value is on record as 14.4%.
Turning to `CC(C)N1C(=O)CC2(CC[N+](C)(CCOC(=O)C(c3ccccc3)c3ccccc3)CC2)C1=O.[I-]` (stereo not shown), the “hERG current change (%, negative = inhibition) at 1uM” value was found to be 10.7%.
As to `CCCCc1nc2cc(C(=O)N3CCCC(COC)C3)ccc2o1` (stereo not shown), the “hERG current change (%, negative = inhibition) at 1uM” value turned out to be 4.55%.
In the case of `O=C(Cn1nnc(-c2ccccc2NC(=O)c2ccccc2)n1)Nc1ccc2c(c1)OCCO2` it was 4.35%; in that of `Cc1nn(C)cc1/C=N/NC(=S)Nc1ccc(Cl)cc1Cl`, 12.2%.
For `COc1cccc(CNC(=O)COc2cc(O)c3c(c2)OC(C)(C)CC3=O)c1`, the “hERG current change (%, negative = inhibition) at 1uM” value came to 7.66%.
Consider `CSc1ccccc1C(=O)Nc1cc(C)ccc1C`, for which the “hERG current change (%, negative = inhibition) at 1uM” value is 0.653%.
In the case of `O=C(Nc1ccc(F)cc1F)c1csc(-c2ccncc2)n1` it was 4.74%.
Regarding `O=C(NCc1cccnc1)C1CCCN(S(=O)(=O)c2ccc(Cl)cc2)C1` (stereo not shown), the “hERG current change (%, negative = inhibition) at 1uM” value is -4.82%.

Source of the values: article PMC4336329 (PLoS ONE, 2015).
